Measurements published in PubChem BioAssay AID686970 (National Center for Advancing Translational Sciences (NCATS), 2013).
Among all 360,000 compounds or so, about 6,000 (1.7%) were called active. The shares of active, inactive and inconclusive entries below differ from those in the screen. Calls come from the whole dose curve; as a rule, active = well fitted cell-killing curve with a large enough effect; inconclusive = small, poorly fitted or top-dose-only effect, or effect the other way; inactive = flat fitted curve, though single readings scatter. Potencies of inconclusive entries are left out as doubtful fits.
Potency is the fitted concentration of half-maximal effect; tags give direction and shape of the fitted curve.

Assay: qHTS for induction of synthetic lethality in tumor cells producing 2HG: qHTS for the HT-1080-NT fibrosarcoma cell line;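 note: NT is the 2HG producing partner of a matched IDH1 knockdown line; nearly all actives have a fitted effect of over 55% in size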;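 for activity, negative = less viability: 0% = DMSO-treated cells and -100% = media-only wells without cells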
Settings: HT-1080-NT fibrosarcoma viability, CellTiter-Glo ATP luminescence, 48 h; activity, negative = less viability: at 46.1 µM (top of the series) unless noted
In short: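 HT-1080-NT; 750 cells/well; 5% FBS RPMI; 48 h compound, 37 degrees C; CellTiter-Glo luminescence; curve fitting and curve-class assignment.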
In the case of `CCCCCC(=O)Nc1nc(C)c(-c2csc(Nc3ccccc3OCC)n2)s1`, the Potency is reported as inconclusive [rising, single point]. With `CC(C)C(=O)N1CCN(c2ccc(NC(=O)c3ccc(Br)o3)cc2)CC1` the Potency was inconclusive [rising, partial curve]. For `NS(=O)(=O)c1ccc(NC(=O)/C=C/c2cn(-c3ccccc3)nc2-c2cccc(Cl)c2)cc1`, the Potency was inconclusive [cytotoxic, single point]. For `COC(=O)Cn1cc(C(=O)OC)cc(Br)c1=O`, the Potency was inconclusive [rising, full curve]. In the case of `O=C(Nc1ccc(N2CCN(C(=O)c3ccco3)CC2)c(Cl)c1)c1cccs1`, the Potency is reported as inconclusive [cytotoxic, partial curve]. In the case of `CCOC(=O)c1c(C)[nH]c(N=Nc2cccc(C)c2)c1C`, the Potency is reported as inconclusive [cytotoxic, partial curve]. For `CCN1C(=O)[C@H]2[C@H]3CN=C(SC)N3[C@@](CC)(C(=O)OC)[C@H]2C1=O`, the activity, negative = less viability was inconclusive: -2.93% [cytotoxic]. In the case of `c1ccc(Cc2cc[n+](Cc3ccccn3)cc2)cc1`, the Potency is reported as “inactive”. With `CCCCCn1c(CN2CCN(c3cccc(Cl)c3)CC2)nc2c1c(=O)n(C)c(=O)n2C` the Potency was “inactive”. For `COc1cccc(/C=N\NC(=O)C2=NNC(=O)C2C)c1O` (centres undefined), the Potency was inconclusive [cytotoxic, single point]. In the case of `CN1CCc2c(n(CC(O)CN3C(=O)c4ccccc4S3(=O)=O)c3ccccc23)C1=O` (centres undefined), the Potency is reported as “inactive”. For `CCCCOc1ccc(C(=O)OC2CC(C)N(C)CC2C)cc1` (centres undefined), the Potency was inconclusive [cytotoxic, single point]. With `Fc1ccc(Nc2nc(NCc3ccccc3)nc3ccsc23)cc1` the Potency was active: 20.6 µM. For `CCOC(=O)c1cnc2nc(NCc3ccc(OCc4ccccc4)cc3)[nH]n2c1=O`, the Potency was “inactive”. For `C[C@H](CO)N1C[C@H](C)[C@H](CN(C)S(=O)(=O)c2cccs2)Oc2ccc(NC(=O)Nc3ccc4c(c3)OCO4)cc2CC1=O`, the Potency was inconclusive [cytotoxic, single point]. In the case of `Cc1ccc(S(=O)(=O)N2CCN(CC(=O)N/N=C\c3ccc(Cl)c([N+](=O)[O-])c3)CC2)cc1`, the Potency is reported as “inactive”. For `O=C(NCCc1c[nH]c2ccccc12)c1[nH]c(C(F)(F)F)nc1-c1ccccc1`, the Potency was “inactive”. With `CCOC(=O)c1sc(Nc2nc3c(F)cccc3s2)cc1C` the Potency was inconclusive [cytotoxic, partial curve]. In the case of `O=c1c2c3nc4ccccc4nc3n(Cc3ccccc3)c2ncn1Cc1ccco1`, the Potency is reported as inconclusive [cytotoxic, single point]. For `CS(=O)(=O)c1cc([N+](=O)[O-])c(Sc2nc3ccccc3[nH]2)c([N+](=O)[O-])c1`, the Potency was active: 11.2 µM. With `COc1ccc(C)cc1NC(=O)CSc1ccc(-c2sc(C)nc2C)nn1` the Potency was “inactive”. With `CN1CCN(C(=O)c2ccc3c(c2)N(Cc2ccccc2F)C(=O)c2ccccc2S3=O)CC1` (centres undefined) the Potency was “inactive”. With `Cc1cc(C)n(-c2nc(NCCN(C)C)c3c4c(sc3n2)CCCC4)n1` the Potency was active: 20.6 µM. For `Cc1nc(CNC(=O)c2cc(COc3c(F)cccc3F)on2)cs1`, the activity, negative = less viability was inconclusive: -14.8% [cytotoxic]. With `O=C(/C=C/c1cccc([N+](=O)[O-])c1)n1cnc2ccccc21` the Potency was inconclusive [cytotoxic, full curve, poor fit]. For `CC(C)[C@@H](NC(=O)OC(C)(C)C)c1cc(C(=O)c2c(-c3ccccc3)[nH]c3ccccc23)c(N)s1`, the Potency was inconclusive [cytotoxic, single point]. In the case of `Nc1ccc(C(=O)NN2C(=O)[C@H](Cl)C2c2ccc(Cl)cc2)cc1` (some centres undefined), the Potency is reported as inconclusive [cytotoxic, single point]. In the case of `CN1CCN(C(=O)c2ccc(CNS(=O)(=O)c3cccc(Cl)c3)cc2)CC1`, the Potency is reported as “inactive”. With `CC(=O)c1ccc(NC(=O)NC2CCCCCCC2)cc1` the Potency was “inactive”. With `COc1ccc(CCN(Cc2cc3cc(C)cc(C)c3nc2Cl)C(=O)C2CC2)cc1` the Potency was inconclusive [cytotoxic, single point]. For `CCOC(=O)Nc1ccc2c(c1)N(C(=O)CCN1CCOCC1)c1ccccc1S2=O` (centres undefined), the Potency was inconclusive [cytotoxic, single point]. In the case of `O=C(/C=C/c1ccccc1)Nc1ncn[nH]1`, the Potency is reported as active: 11.2 µM. With `OC(c1ccc(F)c(F)c1)c1ncc(-c2cccc(C(F)(F)F)c2)[nH]1` (centres undefined) the Potency was inconclusive [cytotoxic, single point]. With `c1ccc(CNCCC(Cc2ccccc2)c2ccco2)cc1` (centres undefined) the Potency was active: 16.4 µM. In the case of `COc1ccc(-n2nc3cc(C)c(NC(=O)c4cccnc4)cc3n2)cc1`, the Potency is reported as inconclusive [cytotoxic, single point]. For `Cc1ccc(-c2[nH]ncc2/C=N/n2c(COc3ccccc3)nc3ccccc3c2=O)cc1`, the Potency was inconclusive [cytotoxic, single point]. For `CC(C)c1ccc(CCNC(=O)c2ccc([N+](=O)[O-])cc2)cc1`, the Potency was inconclusive [cytotoxic, partial curve]. In the case of `O=c1cc(-c2ccccc2F)oc2ccccc12`, the Potency is reported as “inactive”. In the case of `CCc1ccc(NC(=O)CC2C(=O)NCCN2C(=S)Nc2ccccc2)cc1` (centres undefined), the Potency is reported as inconclusive [cytotoxic, single point]. With `CCN(CC)C(=O)c1ccc(Oc2ccc([N+](=O)[O-])cc2Cl)cc1` the Potency was “inactive”. In the case of `COc1ccc(OCCCC(=O)Oc2ccc(OC)cc2)cc1`, the Potency is reported as inconclusive [cytotoxic, single point]. In the case of `COCc1cc(C)nc(SCc2nc3ccccc3c(=O)[nH]2)c1C#N`, the activity, negative = less viability is reported as inconclusive: -31.9% [cytotoxic]. For `COc1ccccc1/C=C/C(=O)NCC(=O)N/N=C/c1cc(Br)ccc1OC`, the Potency was inconclusive [cytotoxic, partial curve]. In the case of `COc1ccc(CCC(=O)Nc2ccc(Cl)c(S(=O)(=O)N3CCCC3)c2)cc1`, the Potency is reported as inconclusive [cytotoxic, partial curve, poor fit].
